Variants at the background level are over-represented here.
B1: TPR 5TU (parent)
chain: GGAUCUUCUCGAUCUAACAAAAAAGACAAAUCUGCCACAAAGCUUGAGAGCAUCUUCGGAUGCAGAGGCGGCAGCCUUCGGUGGCGCGAUAGCGCCAACGUUCUCAACUAUGACACGCAAAACGCGUGCUCCGUUGAAUGGAGUUUAUCAUG

Variants of: B1
Test: polymerase ribozyme fitness, log enrichment relative to wild type (log ratio); higher = more active; in vitro selection for triplet polymerase activity
Procedure, shortened: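 Fitness measures genotype enrichment against wild-type enrichment on a logarithmic scale, with inverse-variance-weighted averaging of replicates. The logarithm is base 2, and genotypes were kept only with ≥10 input reads and ≥1 read per output in Illumina sequencing. The sequenced libraries came from one triplicate in vitro selection round, including frozen incubation at −7 °C, of PCR-built, transcribed mutant libraries of each subunit of a heterodimeric triplet polymerase ribozyme.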
In the case of A29U A49C C79A G81U C95U U102C C105A A113G G117U, the “polymerase ribozyme fitness (log ratio)” value is reported as at most -4.2.
In the case of A29U A49C C95A A120U G124U, the “polymerase ribozyme fitness (log ratio)” value is reported as at most -4.2.
For A29U A52C C57U C95U A120U C125U, the “polymerase ribozyme fitness (log ratio)” value was at most -4.2.
For A29U A52G A73U A91C G92A U130A, the “polymerase ribozyme fitness (log ratio)” value was at most -4.2.
For A29U A52U U53A G80A C87A G128U U146C, the “polymerase ribozyme fitness (log ratio)” value was at most -4.2.
For A29U A52U U61A C63U C69U C75A A97U, the “polymerase ribozyme fitness (log ratio)” value was at most -4.2.
For A29U A64U C95U C114G, the “polymerase ribozyme fitness (log ratio)” value was at most -4.2.
For A29U A91U C123G, the “polymerase ribozyme fitness (log ratio)” value was at most -4.2.
In the case of A29U A97U A115U G124C U134C U148A, the “polymerase ribozyme fitness (log ratio)” value is reported as at most -4.2.
With A29U C32A G46A G68A G83A U90G C149G the “polymerase ribozyme fitness (log ratio)” value was at most -4.2.
In the case of A29U C32U G62A G67U C75G U82G A142U A150G, the “polymerase ribozyme fitness (log ratio)” value is reported as -3.64.
In the case of A29U C35A A60G C85A G126A, the “polymerase ribozyme fitness (log ratio)” value is reported as at most -4.2.
In the case of A29U C36G G46A A66C G68A C87A, the “polymerase ribozyme fitness (log ratio)” value is reported as at most -4.2.
For A29U C36U, the “polymerase ribozyme fitness (log ratio)” value was at most -4.2.
With A29U C36U G74A A119C the “polymerase ribozyme fitness (log ratio)” value was at most -4.2.
With A29U C38G A47G U61A G65U G92A U146A the “polymerase ribozyme fitness (log ratio)” value was at most -4.2.
For A29U C38U G86U G136A U139G, the “polymerase ribozyme fitness (log ratio)” value was at most -4.2.
With A29U C38U U44A U55A C57U C87G C95G the “polymerase ribozyme fitness (log ratio)” value was at most -4.2.
For A29U C43G C93G, the “polymerase ribozyme fitness (log ratio)” value was at most -4.2.
In the case of A29U C51A G94A, the “polymerase ribozyme fitness (log ratio)” value is reported as at most -4.2.
In the case of A29U C51G G68A C93G, the “polymerase ribozyme fitness (log ratio)” value is reported as at most -4.2.
With A29U C57G G68A C87G A91U G143U U146C the “polymerase ribozyme fitness (log ratio)” value was at most -4.2.
In the case of A29U C57U G59U C93U C103A G141C U144A, the “polymerase ribozyme fitness (log ratio)” value is reported as at most -4.2.
In the case of A29U C63U C114U, the “polymerase ribozyme fitness (log ratio)” value is reported as at most -4.2.
With A29U C72U C76G G86U C99A the “polymerase ribozyme fitness (log ratio)” value was at most -4.2.
In the case of A29U C79U G83U U111A, the “polymerase ribozyme fitness (log ratio)” value is reported as at most -4.2.
In the case of A29U C85A G112U, the “polymerase ribozyme fitness (log ratio)” value is reported as at most -4.2.
For A29U C87G U104A C105U G117U, the “polymerase ribozyme fitness (log ratio)” value was at most -4.2.
In the case of A29U C96U A106C U127G, the “polymerase ribozyme fitness (log ratio)” value is reported as at most -4.2.
With A29U C99G G117U the “polymerase ribozyme fitness (log ratio)” value was at most -4.2.
With A29U G34A A40C G68C C96A the “polymerase ribozyme fitness (log ratio)” value was at most -4.2.
With A29U G46A G50A A73G G81U C95G the “polymerase ribozyme fitness (log ratio)” value was at most -4.2.
With A29U G48A A73G A91C the “polymerase ribozyme fitness (log ratio)” value was at most -4.2.
With A29U G48C C75A G124C U144A the “polymerase ribozyme fitness (log ratio)” value was at most -4.2.
In the case of A29U G48U C95U A113U A122G A137C, the “polymerase ribozyme fitness (log ratio)” value is reported as at most -4.2.
In the case of A29U G48U U56A A66C C96A A97G A120U, the “polymerase ribozyme fitness (log ratio)” value is reported as at most -4.2.
In the case of A29U G50A C116U C129G, the “polymerase ribozyme fitness (log ratio)” value is reported as at most -4.2.
In the case of A29U G50A G58C C95U C105U G117C, the “polymerase ribozyme fitness (log ratio)” value is reported as at most -4.2.
For A29U G50C C54A U55A G81C G86C C123U C125A G133C U148G, the “polymerase ribozyme fitness (log ratio)” value was at most -4.2.
In the case of A29U G70C G84A C96U, the “polymerase ribozyme fitness (log ratio)” value is reported as at most -4.2.
In the case of A29U G71A C93G, the “polymerase ribozyme fitness (log ratio)” value is reported as at most -4.2.
In the case of A29U G81A C99G A119U, the “polymerase ribozyme fitness (log ratio)” value is reported as at most -4.2.
For A29U G92A A137G U148G, the “polymerase ribozyme fitness (log ratio)” value was at most -4.2.
In the case of A29U G94U U109A, the “polymerase ribozyme fitness (log ratio)” value is reported as at most -4.2.
In the case of A29U U31C C32A A91G G133U, the “polymerase ribozyme fitness (log ratio)” value is reported as at most -4.2.
For A29U U31G C35G U55A C57A A66C C79U C96G, the “polymerase ribozyme fitness (log ratio)” value was at most -4.2.
With A29U U33C C87U C99U the “polymerase ribozyme fitness (log ratio)” value was at most -4.2.
With A29U U33G C54G A106C the “polymerase ribozyme fitness (log ratio)” value was at most -4.2.
In the case of A29U U44A C75G, the “polymerase ribozyme fitness (log ratio)” value is reported as at most -4.2.
For A29U U45A G70A C85G, the “polymerase ribozyme fitness (log ratio)” value was at most -4.2.
For A29U U45G A52C A66C C93U G140U, the “polymerase ribozyme fitness (log ratio)” value was at most -4.2.
In the case of A29U U53A C76G C85A G117A C149U, the “polymerase ribozyme fitness (log ratio)” value is reported as at most -4.2.
In the case of A29U U55C A60C G88U C93G, the “polymerase ribozyme fitness (log ratio)” value is reported as at most -4.2.
In the case of A29U U56A G126A C132G G140A, the “polymerase ribozyme fitness (log ratio)” value is reported as at most -4.2.
In the case of A29U U61A A91U, the “polymerase ribozyme fitness (log ratio)” value is reported as at most -4.2.
In the case of A29U U61G G117U U148A, the “polymerase ribozyme fitness (log ratio)” value is reported as at most -4.2.
With A29U U77A G80A G92A U148C the “polymerase ribozyme fitness (log ratio)” value was at most -4.2.
For A30C A40U A52G C85A C87U A106U A120G, the “polymerase ribozyme fitness (log ratio)” value was at most -4.2.
With A30C A47U C99U U130A the “polymerase ribozyme fitness (log ratio)” value was at most -4.2.
For A30C A49U C105U G136A, the “polymerase ribozyme fitness (log ratio)” value was at most -4.2.
With A30C C32U C43U A66C A73U the “polymerase ribozyme fitness (log ratio)” value was at most -4.2.
With A30C C32U C96G the “polymerase ribozyme fitness (log ratio)” value was at most -4.2.
With A30C C35G G58C G74U C149A the “polymerase ribozyme fitness (log ratio)” value was at most -4.2.
For A30C C51A U55A G81C A138G G141C, the “polymerase ribozyme fitness (log ratio)” value was at most -4.2.
In the case of A30C C54A, the “polymerase ribozyme fitness (log ratio)” value is reported as at most -4.2.
In the case of A30C C54A C96A, the “polymerase ribozyme fitness (log ratio)” value is reported as at most -4.2.
In the case of A30C C54U C69A G70A A137C, the “polymerase ribozyme fitness (log ratio)” value is reported as at most -4.2.
For A30C C57U G59C U82A G117A A138C, the “polymerase ribozyme fitness (log ratio)” value was at most -4.2.
In the case of A30C C76A G83C, the “polymerase ribozyme fitness (log ratio)” value is reported as at most -4.2.
In the case of A30C C79G C85A A91C, the “polymerase ribozyme fitness (log ratio)” value is reported as at most -4.2.
For A30C C87G C114U A119G A142U A147U, the “polymerase ribozyme fitness (log ratio)” value was at most -4.2.
With A30C C93A A97G the “polymerase ribozyme fitness (log ratio)” value was at most -4.2.
In the case of A30C C96U A138C, the “polymerase ribozyme fitness (log ratio)” value is reported as at most -4.2.
In the case of A30C G42U G65A G83A C87G, the “polymerase ribozyme fitness (log ratio)” value is reported as at most -4.2.
With A30C G42U U44A the “polymerase ribozyme fitness (log ratio)” value was at most -4.2.
With A30C G50C A66G G128U the “polymerase ribozyme fitness (log ratio)” value was at most -4.2.
In the case of A30C G50C G67U G86U C105U G126U, the “polymerase ribozyme fitness (log ratio)” value is reported as at most -4.2.
With A30C G50C U55G C79U C103A G136C A142C G143C C149U the “polymerase ribozyme fitness (log ratio)” value was at most -4.2.
With A30C G50U U77G A91U G117U A122U the “polymerase ribozyme fitness (log ratio)” value was at most -4.2.
With A30C G68U the “polymerase ribozyme fitness (log ratio)” value was at most -4.2.
With A30C G81C A138G U146A C149U the “polymerase ribozyme fitness (log ratio)” value was at most -4.2.
In the case of A30C G88U U135C A150C, the “polymerase ribozyme fitness (log ratio)” value is reported as at most -4.2.
For A30C U31A A52U G83A C132U, the “polymerase ribozyme fitness (log ratio)” value was at most -4.2.
